Drawing on article PMC12136788, this text covers binding signal for 14 molecules.

Sequences and labels used below:
B1: chr17:29575287:29575470:-|CDS|ENSG00000108262|control|control|control (ssRNA)
RNA: GGGAGUUCUACAGUCCGACGAUCUCUAGAGCUGGGCAAAGAGGAAGACUUCCACCCAGAGCUGGAAAGCCUGGAUGGAGACCUAGAUCCUGGGCUUCCCAGCACAGAGGAUGUCAUCUUGAAGACAGAGCAGGUCACCAAGAACAACAGAGGAUUGAGCAUCA
B2: chr4:56502255:56502306:+|3pUTR|ENSG00000174780|msi1_unk|FALSE|overlapping (ssRNA)
RNA: GGGAGUUCUACAGUCCGACGAUCAUUUCAGCUGGAGUCUGAAGAUACUUGUUUCUGUUCAAGUCCCACUUUAAAUUAUGUCUUAGGAGACUGAAAGUGGAAUCUUCUGAGCAUUCCUAAAUAUCUGCUUAGAAAUAUCAUGUGCAACAGAGGAUUGAGCAUCA
B3: chr14:39095999:39096113:-|CDS|ENSG00000100934|unk|FALSE|bound_elsewhere (ssRNA)
RNA: GGGAGUUCUACAGUCCGACGAUCACAAUGACAACCUAUUUGGAAUUCAUUCAACAAAAUGAAGAACGAGAUGGAGUCCGAUUUAGUUGGAAUGUUUGGCCAUCAAGUCGACUGGAAGCUACAAGAAUGGUUGUUCCUGUGGCACAACAGAGGAUUGAGCAUCA
B4: chr1:45660537:45660647:-|5pUTR|ENSG00000159592|unk|FALSE|unique (ssRNA)
RNA: GGGAGUUCUACAGUCCGACGAUCAUUUUUGAUCUAUUACCUUGAUGACAUUAUUUGUCCACACUUGAGCCCAUCUGUCUUUCUAGCUAUGACCUUGUUAUGAACAGUAUUUGCACUCGGUGCAAAUAUCCAUGUCUUACCUAACAACAGAGGAUUGAGCAUCA
B5: ENSG00000107863:be:win_51|CDS|ENSG00000107863|bound_else_gene|NA|bound_elsewhere_windowed (ssRNA)
RNA: GGGAGUUCUACAGUCCGACGAUCCAAGGCCUGCGAGGUCUCAAAAAAUAAAGAUGGAAAAGAACAAAGUGAAACUGUAUCACUGUCUGAAGAUGAAACAUUCUCCUGGCCAGGUCCCAAAACAGUUACGUUGAAAAGAACAUCCAACAGAGGAUUGAGCAUCA
B6: chr3:68976711:68977116:-|CDS|ENSG00000163378|control|control|control (ssRNA)
RNA: GGGAGUUCUACAGUCCGACGAUCCUUUUUAGGAAUACCAAAGUUUUCAACUUUUUCAGCUUUAGAAUUUGUAAAUAUUUUUGUAGAAUAUCAUAUGACUGUAAUUCCAGAGUGUUCCAACUUGUUUAUGAUAUAUUUGGGUAACAACAGAGGAUUGAGCAUCA
B7: chr13:108229279:108229380:+|CDS|ENSG00000139826|unk|total|mutant (ssRNA)
RNA: GGGAGUUCUACAGUCCGACGAUCGCUAACCGCCUUGGCUUCAUGGUCUUGGGCUCUCUGCCGUAUUUCUCUUUUACCUUUAACCGUGACUUUUCAUCUGUAUGGAGGCAUUAUCUUACUUUUGUUAAUAUUCAUAUCAACCGCCAACAGAGGAUUGAGCAUCA
B8: chr12:42456824:42456925:-|3pUTR|ENSG00000139174|unk|FALSE|unique (ssRNA)
RNA: GGGAGUUCUACAGUCCGACGAUCAUGAGCCACUGCGUCUGGCAAUAAUGUAACUUUGAAGCUUAAAAAUUAAUCCCAGUUUGUAGCAAUAACAGAAGACUAUCUACAACGGAAGAAAGAAGCAACUGCCUUACAGUUCUGUAACAACAGAGGAUUGAGCAUCA
B9: chr7:95294748:95294849:+|3pUTR|ENSG00000158528|msi1|total|mutant (ssRNA)
RNA: GGGAGUUCUACAGUCCGACGAUCGAGAAAGCCGACAGAAUCAGCUUCUCCUGGAAAGUGAAAGCAUCAAGUUCUAUUUAUGGCCGACAGAGGGUCCUUAUUUGCUUGUCCGUGGUGUCUAUGUGGGCCUAUUGAGGGAAUGGUCAACAGAGGAUUGAGCAUCA
B10: chr1:156672197:156672316:-|CDS|ENSG00000132688|unk|total|mutant (ssRNA)
RNA: GGGAGUUCUACAGUCCGACGAUCGACAUUGCAAUCCCUGCAAAAGGAGAAUCAAGAACUAAUGAAAUCUCUUGAAGGUAAUCCCGAGACAUUUUUAUUUCCAGGAACGGAAAAUCAAGAAUCCGUAAGUUCUCUGCAAGAGAACAACAGAGGAUUGAGCAUCA
B11: chr21:14371318:14371404:-|3pUTR|ENSG00000155304|msi1_unk|FALSE|overlapping (ssRNA)
RNA: GGGAGUUCUACAGUCCGACGAUCUAUGAAUAACAAUCUGAAGUCUUUUCAUAAAAAAAAUUAAUAAACUUUAGUUGUACAUUUAGCCAGUGUUAUUUGAAGUAUGUAACUUUUAAAAUAUUAAGUGUCUUGUAUGAUUAGAAUCAACAGAGGAUUGAGCAUCA
B12: ENSG00000136451:be:win_3401|3pUTR|ENSG00000136451|bound_else_gene|NA|bound_elsewhere_windowed (ssRNA)
RNA: GGGAGUUCUACAGUCCGACGAUCAUGUAAACAUGCCCUAUGUUUGUGCCUUUUAAUUAGUUUGUCUCAAUAAACAAAAUGUAGAGAAAAAUAUGUAGCUAUGACUUUGUUACAACUGUUCUUAUCCACAGUACAAAAAUGGUUCAACAGAGGAUUGAGCAUCA
B13: chr16:74621626:74621727:-|3pUTR|ENSG00000168411|msi1|FALSE|unique (ssRNA)
RNA: GGGAGUUCUACAGUCCGACGAUCCAUCUCAAAAAAAACAAACAAACAAAAAAAAACCCUGAUGCCAUUCCCAGUCCCCGUUGUAGGACAUCACAUUUAUAAAUCCAGGCUUUAGUCUUCUGGGCUCCACCAGUCUCUGCCCCACAACAGAGGAUUGAGCAUCA
B14: chr9:122916526:122916627:-|3pUTR|ENSG00000171448|unk|FALSE|unique (ssRNA)
RNA: GGGAGUUCUACAGUCCGACGAUCAUGCUUCCUAGCAUUGUGAUUUUUACAUGAUCCAGCCAAAGAGUACCAAUUCUAUGCAAUAGUGAGACUCUACCCUGUCAACCAAACAGCAUUUUUUGGUAUUUUCUGUCAACAUCAUUUCAACAGAGGAUUGAGCAUCA

This is one part of the list.

The assay concerns the target MSI1 full-length (mouse, UniProt Q61474 1-362). In words: nsRBNS (natural sequence RNA bind-n-seq); RBNS binding buffer (assumed for nsRBNS): 25 mM Tris pH 7.5, 150 mM KCl, 3 mM MgCl2, 0.01% Triton X-100, 500 ug/ml BSA, 20 U/ml SUPERase-In, 4 C; UNK is unkempt and MSI1 is Musashi-1; names of the RNAs are library labels; protein concentration not given here; high values mean tight binding.
Sequence of UniProt Q61474 (Q61474 whole entry): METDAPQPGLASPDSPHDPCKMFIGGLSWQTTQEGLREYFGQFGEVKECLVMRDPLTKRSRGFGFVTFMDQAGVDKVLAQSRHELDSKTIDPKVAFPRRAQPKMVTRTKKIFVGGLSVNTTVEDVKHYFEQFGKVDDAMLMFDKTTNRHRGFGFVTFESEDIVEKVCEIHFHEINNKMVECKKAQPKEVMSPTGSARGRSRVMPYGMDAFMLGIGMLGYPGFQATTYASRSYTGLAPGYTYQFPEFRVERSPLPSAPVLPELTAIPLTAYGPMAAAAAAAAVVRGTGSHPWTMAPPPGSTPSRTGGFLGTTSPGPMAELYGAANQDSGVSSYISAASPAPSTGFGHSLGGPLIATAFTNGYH
The molecule B1 came in with a binding signal of 0.357 enrichment R.

The molecule B2 returned a binding signal of 2.1 enrichment R. The molecule B3 showed a binding signal of 0.208 enrichment R.

The molecule B4 came in with a binding signal of 0.393 enrichment R.

With B5, the binding signal is 0.349 enrichment R.

Regarding B6, the binding signal came out at 5.23 enrichment R. The figure for B7 is 0.719 enrichment R. On to B8, for which the binding signal was 0.548 enrichment R. For the molecule B9, the binding signal was determined as 0.433 enrichment R. As for B10, the binding signal amounted to 0.111 enrichment R. Consider B11, for which the binding signal was 6.15 enrichment R. B12 had a binding signal of 7.89 enrichment R. In the case of B13, the binding signal turned out to be 1.24 enrichment R.

B14 yielded a binding signal of 0.315 enrichment R.
